Test results reported in patent publication US20250179210A1, “ANTI-CEACAM5 ANTIBODIES AND CONJUGATES AND USES THEREOF” (Merck Patent GmbH, priority 2022, published 2025).

T1: CEACAM5 in cancer cell line lysates (Homo sapiens, UniProt P06731)
T1 construct: endogenous in cells; host or cells: CEACAM5-positive and -negative cancer cell lines (RIPA lysates)
T1 sequence (P06731 35-685): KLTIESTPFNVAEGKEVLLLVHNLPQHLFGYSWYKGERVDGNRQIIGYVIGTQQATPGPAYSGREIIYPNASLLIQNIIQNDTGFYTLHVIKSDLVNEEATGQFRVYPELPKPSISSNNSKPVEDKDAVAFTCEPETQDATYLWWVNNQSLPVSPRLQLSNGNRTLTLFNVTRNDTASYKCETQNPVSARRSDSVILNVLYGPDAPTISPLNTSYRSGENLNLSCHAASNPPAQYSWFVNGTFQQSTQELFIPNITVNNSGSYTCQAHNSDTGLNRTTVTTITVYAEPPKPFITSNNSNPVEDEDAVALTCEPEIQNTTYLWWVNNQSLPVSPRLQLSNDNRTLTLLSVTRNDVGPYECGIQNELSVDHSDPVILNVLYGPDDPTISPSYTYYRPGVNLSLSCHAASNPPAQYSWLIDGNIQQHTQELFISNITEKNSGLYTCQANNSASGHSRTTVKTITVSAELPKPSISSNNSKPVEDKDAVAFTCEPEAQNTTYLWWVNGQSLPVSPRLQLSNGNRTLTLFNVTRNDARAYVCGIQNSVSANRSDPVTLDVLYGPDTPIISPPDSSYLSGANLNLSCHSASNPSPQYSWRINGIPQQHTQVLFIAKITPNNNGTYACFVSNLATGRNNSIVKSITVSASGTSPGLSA

B1: mAb1: anti-CEACAM5 antibody; two heavy chains SEQ ID NO: 13 and two light chains SEQ ID NO: 14 (antibody)
heavy: EVQLQESGPGLVKPSQTLSLTCTVSDGSVSRGGYYLTWIRQHPGKGLEWIGYIYYSGSTYFNPSLRSRVTMSVDTSKNQFSLKLSSVTAADTAVYYCARGIAVAPFDYWGQGTLVTVSSASTKGPSVFPLAPSSKSTSGGTAALGCLVKDYFPEPVTVSWNSGALTSGVHTFPAVLQSSGLYSLSSVVTVPSSSLGTQTYICNVNHKPSNTKVDKRVEPKSCDKTHTCPPCPAPPVAGPSVFLFPPKPKDTLMISRTPEVTCVVVDVSHEDPEVKFNWYVDGVEVHNAKTKPREEQYNSTYRVVSVLTVLHQDWLNGKEYKCKVSNKALPSSIEKTISKAKGQPREPQVYTLPPSREEMTKNQVSLTCLVKGFYPSDIAVEWESNGQPENNYKTTPPVLDSDGSFFLYSKLTVDKSRWQQGNVFSCSVMHEALHNHYTQKSLSLSPG
light: EIVLTQSPATLSVSPGERATLSCRTSQSVRSNLAWYQQKPGQAPRLLIYAASTRATGIPARFSGSGSGTEFTLTISSLQSEDFAVYYCQQYTNWPFTFGPGTKVDIKRTVAAPSVFIFPPSDEQLKSGTASVVCLLNNFYPREAKVQWKVDNALQSGNSQESVTEQDSKDSTYSLSSTLTLSKADYEKHKVYACEVTHQGLSSPVTKSFNRGEC
B2: ADC1 (conjugate)
heavy: EVQLQESGPGLVKPSQTLSLTCTVSDGSVSRGGYYLTWIRQHPGKGLEWIGYIYYSGSTYFNPSLRSRVTMSVDTSKNQFSLKLSSVTAADTAVYYCARGIAVAPFDYWGQGTLVTVSSASTKGPSVFPLAPSSKSTSGGTAALGCLVKDYFPEPVTVSWNSGALTSGVHTFPAVLQSSGLYSLSSVVTVPSSSLGTQTYICNVNHKPSNTKVDKRVEPKSCDKTHTCPPCPAPPVAGPSVFLFPPKPKDTLMISRTPEVTCVVVDVSHEDPEVKFNWYVDGVEVHNAKTKPREEQYNSTYRVVSVLTVLHQDWLNGKEYKCKVSNKALPSSIEKTISKAKGQPREPQVYTLPPSREEMTKNQVSLTCLVKGFYPSDIAVEWESNGQPENNYKTTPPVLDSDGSFFLYSKLTVDKSRWQQGNVFSCSVMHEALHNHYTQKSLSLSPG
light: EIVLTQSPATLSVSPGERATLSCRTSQSVRSNLAWYQQKPGQAPRLLIYAASTRATGIPARFSGSGSGTEFTLTISSLQSEDFAVYYCQQYTNWPFTFGPGTKVDIKRTVAAPSVFIFPPSDEQLKSGTASVVCLLNNFYPREAKVQWKVDNALQSGNSQESVTEQDSKDSTYSLSSTLTLSKADYEKHKVYACEVTHQGLSSPVTKSFNRGEC

Experiments:
[1] = biological target: BSA (bovine serum albumin) (Bos taurus, UniProt P02769); assay: Selectivity ELISA, species and domains (negative control); assay type: binding
Experimental: Selectivity determination for mAb1 was done by titrating the antibody from 4 nM to 0.25 μM and applying it on 1 μg/ml bound recombinant human (rh) CEACAM5 ECD or its domains N-A1-B1, A2-B2, A3-B3 or bound recombinant Macaca fascicularis (mf) CEACAM5 ECD, all obtained from Syngene, in an ELISA assay.

[2] = system: mfCEACAM5-expressing CHO cell line; assay: Cellular binding (titration, fluorescence MFI); parameters: species or system Macaca fascicularis; conditions: exemplary data
Experimental: The antibody's ability to bind its target protein on cells was determined by titrating the antibody on cells that express the target (e.g. human CEACAM5) and measuring the fluorescence MFI of the cells. Model cells for antibody binding comparison were the MKN45 cell line expressing human CEACAM5 as well as a CHO cell line expressing mfCEACAM5. Titration was done with 10-point ×4 dilution, curve starting concentration 2000 nM in assay buffer (PBS×1 containing 1% BSA).

[3] = system: FcγRI, FcγRIIa, FcγRIIIa, FcγRIIIa/complex, C1q, FcγRIIb and FcγRIIIb; assay: Binding to Fc effector molecules; conditions: compared to the parent clone
[4] = biological target: T1, CEACAM5 in cancer cell line lysates; assay: Western blot on cancer cell line lysates; assay type: binding; conditions: CEACAM5-positive and -negative cell line lysates
Experimental: Method used: Western blots were performed according to standard protocols (Sambrook, J. & Russell, D. W., 2001. Molecular Cloning: A Laboratory Manual, Volume 1, CSHL Press). For SDS-PAGE followed by membrane wet blotting, 15 μg total protein of RIPA cell lysates quantified by BCA kit (Thermo Scientific, #23227) were loaded per lane. Criterion XT 4-12% gels (Bio-Rad, #3450125) using MOPS running buffer (Bio-Rad #1610788) were used in a Criterion electrophoresis cell (Bio-Rad, #1656001). Transfer of proteins was confirmed by Ponceau staining. Membranes were washed before and in-between staining with 0.5 μg/mL to 1 μg/mL primary (mAb1 or rb8G4) and secondary antibodies (anti-human IgG, Jackson ImmunoResearch #109-035-098 or anti-rabbit IgG, CellSignaling #7074) was conducted. Stained membranes were visualized by ECL detection reagent using a Fusion FX imaging system (Vilber).

[5] = system: SK-CO-1; assay: Viability assay (Cell Titer-Glo); assay type: cell-based, human; conditions: Table 2; at the highest tested compound concentration
[6] = system: MDA-MB-231; assay: Viability assay (Cell Titer-Glo); assay type: cell-based, human; conditions: Table 2
[7] = system: human patient-derived CRC xenograft model COPF217; assay: CRC PDX mouse model COPF217; assay type: in vivo; conditions: single i.v. treatment, 10 mg/kg
Experimental: Anti-tumor efficacy in vivo has been evaluated in the human patient-derived CRC xenograft model COPF217 (Shanghai LideBiotech CO., LTD). COPF217 tumor fragments were transplanted subcutaneously into the right flank of six to eight weeks old immunodeficient female mice (NU-Foxn1nu, Charles River). […] Tumor length (L) and width (W) were measured with calipers and tumor volumes were calculated using the formula L×(W^2)/2.

[8] = system: human pancreatic cell line derived xenograft model HPAF-II; assay: Pancreatic cell line derived xenograft model HPAF-II; assay type: in vivo, mouse; conditions: single i.v. treatment
Experimental: 5×10^6 HPAF-II cells were injected subcutaneously into the right flank of six to eight weeks old immunodeficient female mice (Hsd:Athymic Nude-Foxn1nu, Envigo). […] Tumor length (L) and width (W) were measured with calipers and tumor volumes were calculated using L×(W^2)/2.
Efficacy of ADC1-M and ADC3-M in comparison to ADC8 was evaluated in the human pancreatic adenocarcinoma, cell line-derived xenograft model HPAF-II (ATCC, CRL-1997). Six to eight weeks old immunodeficient female mice (Hsd:Athymic Nude-Foxn1nu, Envigo) were injected subcutaneously in the right flank with 5×10^6 HPAF-II cells. When tumors reached a mean volume of 150 mm^3, 10 mice/group were treated once intravenously with ADC1-M (1 mg/kg or 6 mg/kg) or with ADC3-M (1 mg/kg or 6 mg/kg) or with ADC8 (1 mg/kg or 6 mg/kg). Tumor length (L) and width (W) were measured with calipers and tumor volumes were calculated using L×W^2/2.

[9] = 30-min i.v. infusion on day 1, 22 and 43 at 3, 10, and 30 mg/kg
[10] = Pharmacokinetic study in human FcRn transgenic mice; conditions: 3 mg/kg i.v., HuFcRn mice

BSA (bovine serum albumin), sequence (P02769 25-607): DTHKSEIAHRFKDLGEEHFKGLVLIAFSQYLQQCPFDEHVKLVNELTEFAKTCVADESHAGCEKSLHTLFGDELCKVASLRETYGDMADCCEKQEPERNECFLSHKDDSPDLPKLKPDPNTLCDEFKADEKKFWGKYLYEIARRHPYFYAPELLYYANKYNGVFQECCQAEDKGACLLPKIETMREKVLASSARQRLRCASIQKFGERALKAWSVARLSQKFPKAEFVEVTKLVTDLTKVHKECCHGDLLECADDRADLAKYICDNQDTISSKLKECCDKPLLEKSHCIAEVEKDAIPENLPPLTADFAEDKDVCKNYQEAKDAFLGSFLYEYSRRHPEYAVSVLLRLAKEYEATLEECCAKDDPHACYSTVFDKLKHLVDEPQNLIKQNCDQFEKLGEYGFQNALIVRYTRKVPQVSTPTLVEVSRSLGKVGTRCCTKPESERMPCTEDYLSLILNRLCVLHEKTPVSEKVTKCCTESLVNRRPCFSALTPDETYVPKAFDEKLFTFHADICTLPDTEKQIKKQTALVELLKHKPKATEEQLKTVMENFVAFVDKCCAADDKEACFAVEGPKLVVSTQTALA

| Molecule | Binding to BSA (negative control) [1] | EC50 [2] | Binding to FcγRI, FcγRIIa, FcγRIIIa, FcγRIIIa/complex, C1q, FcγRIIb and FcγRIIIb [3] | CEACAM5 detection in Western blot [4] | SK-CO-1 maximal effect compared to untreated controls [5] | MDA-MB-231 maximal effect compared to untreated controls ([6]; at the highest tested compound concentration) | IC50 ([6]; six days, geometric mean, N ≥ 3, CEACAM5 Negative) | anti-tumor effect [7] | impact on body weight [7] | anti-tumor effect ([8]; 1 mg/kg) | anti-tumor effect ([8]; 6 mg/kg) | safety profile [9] | AUCinf [10] | AUClast [10] | Cl [10] | Tlast [10] | Vss [10] | Vz [10] | C0 ([10]; back extrapolation) |
| --- | --- | --- | --- | --- | --- | --- | --- | --- | --- | --- | --- | --- | --- | --- | --- | --- | --- | --- | --- |
| B1 | No binding | 4.8 ± 0.6 nM | reduced or no binding | specific to CEACAM5-positive cell lines | – | – | – | – | – | – | – | – | – | – | – | – | – | – | – |
| B2 | – | – | – | – | (−97%) | (−67%) | > 10 nM | significant anti-tumor effect | no significant impact on body weight | mild but significant, transient anti-tumor effect | significant anti-tumor effect | comparatively favorable safety profile | 1360 µg·h/mL | 1360 µg·h/mL | 2.20 mL/h/kg | 240 h | 0.0658 L/kg | 0.0939 L/kg | 76.8 µg/mL |
